Drawing on publication PMC9911399, “Two distinct binding modes provide the RNA-binding protein RbFox with extraordinary sequence specificity”, this text covers binding signal for 20 molecules.

The chains are these.
B1: ACGCUUG (DNA:RNA)
RNA: GGGAGACCGGAAUUCAGAUUGUCCACGCUUGUUAAAUCCCGUCGUAGCCACCA
DNA 1: CAATCTGAATTCCGGTCTCCC
DNA 2: TGGTGGCTACGACGGGATT
B2: CGCAUAA (DNA:RNA)
RNA: B1 RNA with A25C, C26G, G27C, C28A, U30A, G31A
DNA 1: CAATCTGAATTCCGGTCTCCC
DNA 2: TGGTGGCTACGACGGGATT
B3: CUUCACG (DNA:RNA)
RNA: B1 RNA with A25C, C26U, G27U, U29A, U30C
DNA 1: CAATCTGAATTCCGGTCTCCC
DNA 2: TGGTGGCTACGACGGGATT
B4: UUUGGAU (DNA:RNA)
RNA: GGGAGACCGGAAUUCAGAUUGUCCUUUGGAUUUAAAUCCCGUCGUAGCCACCA
DNA 1: CAATCTGAATTCCGGTCTCCC
DNA 2: TGGTGGCTACGACGGGATT
B5: GGCGCAU (DNA:RNA)
RNA: B4 RNA with U25G, U26G, U27C, G29C
DNA 1: CAATCTGAATTCCGGTCTCCC
DNA 2: TGGTGGCTACGACGGGATT
B6: GAUGUGG (DNA:RNA)
RNA: B1 RNA with A25G, C26A, G27U, C28G, U30G
DNA 1: CAATCTGAATTCCGGTCTCCC
DNA 2: TGGTGGCTACGACGGGATT
B7: ACCAAUC (DNA:RNA)
RNA: B1 RNA with G27C, C28A, U29A, G31C
DNA 1: CAATCTGAATTCCGGTCTCCC
DNA 2: TGGTGGCTACGACGGGATT
B8: ACCGUCA (DNA:RNA)
RNA: B1 RNA with G27C, C28G, U30C, G31A
DNA 1: CAATCTGAATTCCGGTCTCCC
DNA 2: TGGTGGCTACGACGGGATT
B9: GAGUGCC (DNA:RNA)
RNA: B1 RNA with A25G, C26A, C28U, U29G, U30C, G31C
DNA 1: CAATCTGAATTCCGGTCTCCC
DNA 2: TGGTGGCTACGACGGGATT
B10: CAAACCC (DNA:RNA)
RNA: GGGAGACCGGAAUUCAGAUUGUCCCAAACCCUUAAAUCCCGUCGUAGCCACCA
DNA 1: CAATCTGAATTCCGGTCTCCC
DNA 2: TGGTGGCTACGACGGGATT
B11: GAACUUG (DNA:RNA)
RNA: B1 RNA with A25G, C26A, G27A
DNA 1: CAATCTGAATTCCGGTCTCCC
DNA 2: TGGTGGCTACGACGGGATT
B12: UCUCGUU (DNA:RNA)
RNA: B4 RNA with U26C, G28C, A30U
DNA 1: CAATCTGAATTCCGGTCTCCC
DNA 2: TGGTGGCTACGACGGGATT
B13: AUGCGGG (DNA:RNA)
RNA: B1 RNA with C26U, U29G, U30G
DNA 1: CAATCTGAATTCCGGTCTCCC
DNA 2: TGGTGGCTACGACGGGATT
B14: ACGAUGU (DNA:RNA)
RNA: B1 RNA with C28A, U30G, G31U
DNA 1: CAATCTGAATTCCGGTCTCCC
DNA 2: TGGTGGCTACGACGGGATT
B15: CAACCGU (DNA:RNA)
RNA: B10 RNA with A28C, C30G, C31U
DNA 1: CAATCTGAATTCCGGTCTCCC
DNA 2: TGGTGGCTACGACGGGATT
B16: AAAGACU (DNA:RNA)
RNA: B10 RNA with C25A, A28G, C29A, C31U
DNA 1: CAATCTGAATTCCGGTCTCCC
DNA 2: TGGTGGCTACGACGGGATT
B17: UAUUUCC (DNA:RNA)
RNA: B10 RNA with C25U, A27U, A28U, C29U
DNA 1: CAATCTGAATTCCGGTCTCCC
DNA 2: TGGTGGCTACGACGGGATT
B18: GUGGGGA (DNA:RNA)
RNA: B4 RNA with U25G, U27G, A30G, U31A
DNA 1: CAATCTGAATTCCGGTCTCCC
DNA 2: TGGTGGCTACGACGGGATT
B19: UGGAAAU (DNA:RNA)
RNA: B4 RNA with U26G, U27G, G28A, G29A
DNA 1: CAATCTGAATTCCGGTCTCCC
DNA 2: TGGTGGCTACGACGGGATT
B20: ACAACCG (DNA:RNA)
RNA: B10 RNA with C25A, A26C, C31G
DNA 1: CAATCTGAATTCCGGTCTCCC
DNA 2: TGGTGGCTACGACGGGATT

Positions count from the first letter of the chain named. The list shows a part of the results.

The target in this experiment is T1, RBFOX1 RRM RbFoxmut (Fox-RRM*) (Homo sapiens, UniProt Q9NWB1 109-208, R118D;E147R;N151S;E152T).
T1 sequence: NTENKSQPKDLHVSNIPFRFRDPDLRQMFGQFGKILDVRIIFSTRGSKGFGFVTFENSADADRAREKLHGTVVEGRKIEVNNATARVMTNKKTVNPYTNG
As to the kind of experiment: EMSA; HiTS-Eq, 1 nM pool, 10 min; buffer printed only for the single-RNA assays: 10 mM Tris pH 7.5, 150 mM NaCl, 3.4 mM EDTA, 0.001% NP-40, 30 C. The note with it: tags: His6 N-terminal (pET28a); label: 5' 32P. The method, boiled down:
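A pool of RNA with 7 randomized nucleotides, 5′-radiolabelled and with DNA-annealed flanks, was equilibrated at 1 nM for 10 min in 50 µL with purified RbFox RRM, wild type or mutant, across increasing protein concentrations. Free RNA was separated by 8% native PAGE, excised, reverse-transcribed, barcoded by PCR and sequenced. Relative association constants were obtained from read-count changes of each RNA species versus the control reaction and normalised to the cognate motif.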
Regarding B1, the binding signal is 0.231 KA relative to UGCAUGU. For B2, the binding signal was 0.117 KA relative to UGCAUGU. In the case of B3, the binding signal is 0.169 KA relative to UGCAUGU.

As to B4, the binding signal was 0.0735 KA relative to UGCAUGU.

Turning to B5, the binding signal was 0.0915 KA relative to UGCAUGU. In the case of B6 it was 0.0839 KA relative to UGCAUGU; in that of B7, 0.0731 KA relative to UGCAUGU; in that of B8, 0.0725 KA relative to UGCAUGU.

Turning to B9, the binding signal is 0.18 KA relative to UGCAUGU. In the case of B10 it was 0.0755 KA relative to UGCAUGU; in that of B11, 0.0885 KA relative to UGCAUGU; in that of B12, 0.108 KA relative to UGCAUGU. B13: the binding signal was 0.103 KA relative to UGCAUGU. For B14, the binding signal is 0.149 KA relative to UGCAUGU. As to B15, the binding signal was 0.0769 KA relative to UGCAUGU. In the case of B16 it was 0.0797 KA relative to UGCAUGU; in that of B17, 0.064 KA relative to UGCAUGU. Regarding B18, the binding signal is 0.0939 KA relative to UGCAUGU. With B19, the binding signal is 0.0772 KA relative to UGCAUGU.

In the case of B20, the binding signal was 0.0832 KA relative to UGCAUGU.
